# Measured values as given in PubChem BioAssay (NCATS).
# Inconclusive means that the source gave no clear call. Such entries were picked first, then a sample of the others. Potencies of inconclusive entries are left out as doubtful fits. The source made the active and inactive calls. Calls come from the whole dose curve; as a rule, active = well fitted inhibition curve with a large enough effect; inconclusive = small, poorly fitted or top-dose-only effect; inactive = flat fitted curve, though single readings scatter.
# Assay: BET inhibitor-based combinations targeting novel dependencies in MECOM-rearranged (r) AML: AML-191 cell line (AID 2202236; note: nearly all actives have a fitted effect of over 35% in size)
# Conditions: AML-191 viability, CellTiter-Glo luminescence, 48 h; series mostly up to 46 µM
# Description: Ecotropic viral insertion site 1 (EVI1) is located on chromosome 3q26.2 as part of the MECOM (MDS and EVI1 complex) locus. Under normal hematopoiesis, EVI1 is a regulator of hematopoietic stem cell maintenance and self-renewal and EVI1 levels decrease as the cells differentiate. In approximately 5-10% of de novo acute myeloid leukemia (AML) EVI1 is aberrantly expressed, including Chromosomal inv(3)(q21;q26.2) or t(3;3)(q21;q26.2) alterations (MECOM-r) that account for about 50% of AML with EVI1 overexpression 31. AMLs with high levels of EVI1 have a poor prognosis and an overall survival time averaging between 10-14 months. EVI1 overexpression confers resistance in leukemia cells, highlighting the need to develop new targeted therapies for EVI1 overexpressing AMLs.
# Here, we performed an unbiased chemical drug screening by evaluating the single agent activity of a collection of 2,480 oncology-focused, approved and investigational drugs (NCATS Mechanism Interrogation Plates, MIPE v5.0) against a panel of seven AML cell lines. These included four MECOM-r cell-lines (AML-191, AML-194, UCSD-AML1 and HNT-34) and three non-MECOM-r AMLs (MV4-11, OCI-AML3 and SET-2). Exploiting the mechanistic redundancy built in the library, we identified target-level sensitivities in MECOM-r AML cells and relative activity as compared to other AML subtypes.
# A collection of 2480 mechanistically annotated dugs (MIPE v5.0) was used to screen four 3q26.2 rearranged AML cell lines and three non-3q26.2 rearranged AML cell lines. This library purposely exploits redundancy by including multiple inhibitors of key onco-targets, while simultaneously encompassing mechanistic diversity, targeting more than 800 distinct mechanisms of action. Briefly, cells were seeded in 5 uL of growth media using a Multidrop Combi dispenser into 1536 well white polystyrene tissue culture treated plates (Corning) at a density of 500cells/well. For each cell-line, for each of the 2480 drugs in MIPE v5.0 library, an 11-point dose curve was generated via a 1536 pin-tool. Plates were incubated for 48 hr at standard incubator conditions, covered by a stainless steel gasketed lid to prevent evaporation. Cell viability was determined by luminescence based, Cell Titer Glo assay (Promega). In detail, 3 uL of Cell Titer Glo were added to each well and plates were incubated at room temperature for 15 min with a stainless-steel lid in place. Luminescence readings were taken using a Viewlux (PerkinElmer) with a 2 s exposure time per plate. Compound dose-response curves were normalized to DMSO and empty well controls on each plate. Quantitative drug activity data from dose-response curves was determined utilizing area Under the Curve (AUC) and Z-transformed AUC (Z-AUC, a mean-centering transformation applied to each individual cell-line screened).
# Potency is the fitted concentration of half-maximal effect; tags give direction and shape of the fitted curve.
row,Compound,Potency
1,C#Cc1cccc(Nc2ncnc3cc4c(cc23)OCCOCCOCCO4)c1,"inconclusive [inhibitor, single point]"
2,CO[C@H]1/C=C/O[C@@]2(C)Oc3c(C)c(O)c4c(O)c(c5c(c4c3C2=O)=NC2(CCN(CC(C)C)CC2)N=5)NC(=O)/C(C)=C/C=C/[C@H](C)[C@H](O)[C@@H](C)[C@@H](O)[C@@H](C)[C@H](OC(C)=O)[C@@H]1C,active: 18.6 µM
3,N=C1S/C(=C\c2ccc(-c3ccc4c(c3)C(=O)NC4=O)o2)C(=O)N1c1ccc(Br)cc1,inactive
4,COc1ccc(-c2ccc3c(N4CCOCC4)nc(N4C[C@@H](C)O[C@@H](C)C4)nc3n2)cc1CO,"inconclusive [inhibitor, full curve]"
5,CN1CCc2c(n(Cc3ccc(C(=O)NO)cc3)c3ccccc23)C1,"inconclusive [inhibitor, partial curve, poor fit]"
6,CS(=O)(=O)Nc1cc2occ(NC=O)c(=O)c2cc1Oc1ccccc1,inactive
7,CN1N=C(N)c2cn([C@@H]3O[C@H](COP(=O)(O)O)[C@@H](O)[C@@H]3O)c3ncnc1c23,active: 2.35 µM
8,O=C(Nc1cn[nH]c1-c1nc2ccc(CN3CCOCC3)cc2[nH]1)NC1CC1,active: 2.09 µM
9,O=C(Nc1cccc(Br)c1)c1cccc(S(=O)(=O)N2CCCCCC2)c1,"inconclusive [inhibitor, partial curve]"
10,CC(C)n1cnc2c(NCCCCCCNC(=O)OC(C)(C)C)nc(NCCO)nc21,"inconclusive [inhibitor, single point]"
11,c1cc(-c2cnn3cc(-c4ccc(OCCN5CCCCC5)cc4)cnc23)ccn1,active: 8.33 µM
12,COc1ccc(Nc2cc(-c3cnc(N)nc3)nc(N3CCOCC3)n2)cn1,"inconclusive [inhibitor, full curve]"
13,C[C@H]1O[C@@H](O[C@H]2[C@@H](O)C[C@H](O[C@H]3[C@@H](O)C[C@H](O[C@H]4CC[C@@]5(C)[C@H](CC[C@@H]6[C@@H]5C[C@@H](O)[C@]5(C)[C@@H](C7=CC(=O)OC7)CC[C@]65O)C4)O[C@@H]3C)O[C@@H]2C)C[C@H](O)[C@@H]1O,active: 0.132 µM
14,N#Cc1ccc(Cn2cncc2CN2CCN(c3cccc(Cl)c3)C(=O)C2)cc1,"inconclusive [inhibitor, partial curve]"
15,Cc1ccc(NS(=O)(=O)c2cccc(C#N)c2)c2[nH]cc(C#N)c12,"inconclusive [inhibitor, full curve]"
16,O=c1[nH]nc(OCCCc2ccc(Cl)cc2)c(NCc2cccnc2)c1Br,"inconclusive [inhibitor, partial curve]"
17,COc1ccc(S(=O)(=O)Nc2cccnc2Nc2ccc(O)cc2)cc1,active: 0.468 µM
18,Cc1cccc(-c2[nH]ncc2-c2ccc3ncccc3n2)n1,inactive
19,CC(C)OC(=O)C(C(=O)OC(C)C)=C1SC=CS1,inactive
20,Cn1c(NC[C@@H](N)Cc2ccccc2)nc(-c2ccncc2)c(-c2ccc3ccccc3c2)c1=O,"inconclusive [inhibitor, single point]"

row,Compound,Potency
1,COC(=O)C[C@](O)(CCCC(C)(C)O)C(=O)O[C@@H]1C(OC)=C[C@]23CCCN2CCc2cc4c(cc2[C@H]13)OCO4,active: 0.059 µM
2,N#C[C@@H]1C[C@@H]2C[C@@H]2N1C(=O)[C@@H](N)C12CC3CC(CC(O)(C3)C1)C2,"inconclusive [inhibitor, partial curve]"
3,COc1ccc(-c2cc(=O)c3c(O)cc(O)cc3o2)cc1O,"inconclusive [inhibitor, partial curve]"
4,Cc1nc2ccc(C(=O)N3CCC4(CC3)CC(=O)c3c(cnn3C(C)C)C4)cc2[nH]1,"inconclusive [inhibitor, partial curve, poor fit]"
5,CCCCNc1cc(C(=O)O)cc(S(N)(=O)=O)c1Oc1ccccc1,inactive
6,O=C(O)c1nc(=O)[nH]c(=O)[nH]1,inactive
7,O=C(Nc1ccc(OC(F)(F)Cl)cc1)c1cnc(N2CC[C@@H](O)C2)c(-c2ccn[nH]2)c1,"inconclusive [inhibitor, partial curve, poor fit]"
8,CCOC(=O)C1=C(O)C(=O)N(Cc2ccccc2)C1,inactive
9,Nc1cc(COc2c(Cl)cc(C[C@H](N)C(=O)O)cc2Cl)c2oc(-c3ccccc3)nc2c1,active: 20.9 µM
10,CN1CCN(C2CCN(C(=O)Nc3cc(Oc4ccc(NC(=O)C5(C(=O)Nc6ccc(F)cc6)CC5)c(F)c4)ccn3)CC2)CC1,active: 18.6 µM
11,C=CC(=O)Nc1cc(Nc2nccc(-c3cn(C)c4ccccc34)n2)c(OC)cc1N(C)CCN(C)C,active: 8.33 µM
12,CO[C@@H]1[C@@H](O)[C@H](O)[C@@H](n2c3c(Cl)cccc3c3c4c(c5c6cccc(Cl)c6[nH]c5c32)C(=O)NC4=O)O[C@H]1CO,active: 2.35 µM
13,N=C1CCCN1Cc1[nH]c(=O)[nH]c(=O)c1Cl,inactive
14,COc1ccc(-c2ccc3ncc4c(c3c2)n(-c2ccc(N3CCNCC3)c(C(F)(F)F)c2)c(=O)n4C)cn1,active: 0.132 µM
15,Cc1c(-c2ccc(-c3ccccc3F)cc2)nc2ccc(F)cc2c1C(=O)O,"inconclusive [inhibitor, full curve]"
16,COc1ccccc1C(=O)Nc1cc2c(cc1N1CCCCC1)n(C)c(=O)n2C,inactive
17,C=CC(=O)N1CCC(C2CCNc3c(C(N)=O)c(-c4ccc(Oc5ccccc5)cc4)nn32)CC1 (stereo not given),"inconclusive [inhibitor, partial curve]"
18,CCCC(CCC)C(=O)O,inactive
19,Cc1c(NC(=O)c2cc3c(s2)CCCC3)cccc1-c1cn(C)c(=O)c(Nc2ccc(C3C(=O)N(C)CCN3C)cc2)n1 (stereo not given),"inconclusive [inhibitor, full curve, poor fit]"
20,C=C1/C(=C/C=C2\CCCC3(C)[C@@H]([C@H](C)/C=C/C=C/C(O)(CC)CC)CC[C@@H]23)C[C@@H](O)C[C@@H]1O (stereo not given in full),active: 26.3 µM
